The whole screen tested about 52,000 compounds, of which about 4,300 (8.3%) were called active. Rule as the data show it: active = survival mostly below about 52% (no sharp cut-off); inactive = mostly above about 56%. The list shows a part of the results.

The assay concerns DeltatarO mutant. Nature of the assay: S. aureus survival, RN4220 and DeltatarO strains – OD600, teichoic acid synthesis inhibitors, primary screen (AID 463173). The note with it: S. aureus RN4220 wild type/DeltatarO growth, OD600, 18 h, active compounds read low, screened at 18.75 µg/mL (by protocol).
As for `CCC(=O)N1CCc2cc(S(=O)(=O)NCCC(=O)Nc3ccc(OC)c(OC)c3)ccc21`, the survival was inactive: 88%. The same measure for `CCOC(=O)c1oc2ccccc2c1CN(C)CCc1ccccc1`: inactive: 70%; for `COC(=O)/C=C\c1cc(Br)ccc1C#N`: inactive: 87%. The same measure for `Cc1ccc(CNC(=O)c2cccc(-n3cnc4cccnc43)c2)cc1`: inactive: 69%; for `COc1cccc(C(=O)Nc2c3c(nn2-c2ccc(Cl)cc2)CS(=O)(=O)C3)c1`: inactive: 82%. As for `CCc1ccc(NC(=O)CCNS(=O)(=O)c2ccc3c(c2)CCCC(=O)N3)cc1`, the survival is inactive: 94%.

Take `CCN(CC)C(C)C(=O)Nc1c(C)cccc1C` (stereo not drawn): the survival is inactive: 81%. In the case of `COc1ccc(NC(=O)c2oc3ccc(S(=O)(=O)N(C)C4CCCCC4)cc3c2C)cc1` it was inactive: 90%; in that of `CCOC(=O)c1scc(-c2ccccc2)c1S(=O)(=O)N1CCN(c2ccccc2OC)CC1`, inactive: 94%. The same measure for `Cc1ccc(CNC(=O)CSc2nc3n[nH]c(C)c3c(=N)n2-c2cccc(C)c2)cc1`: inactive: 128%; for `CC1(C)Cc2c(c(-c3ccccc3)[nH]c(=O)c2C#N)CO1`: inactive: 95%; for `COc1ccc(-c2noc(-c3ccc(N4CCC(C)CC4)c([N+](=O)[O-])c3)n2)cc1OC`: inactive: 59%.

Consider `O=C(NCCc1csc2nc(-c3cccc(F)c3)nn12)c1ccc(Br)o1`, for which the survival is inactive: 76%. The same measure for `CCOc1ccc(NC(=O)Cn2cc(S(=O)(=O)N3CCN(c4ccccc4F)CC3)c3ccccc3c2=O)cc1`: inactive: 89%; for `CCCCNc1nc2c(c(=O)n(Cc3ccc(Cl)c(Cl)c3)c(=O)n2C)n1C`: active: -10%; for `Cc1cccc(-c2c3c(=O)n(C)c(=O)n(C)c3c3cnc4ccccc4n23)c1`: inactive: 84%. Take `O=C(Nc1c(Cl)cccc1Cl)c1cc(-c2cccc(O)c2)on1`: the survival was inactive: 68%. In the case of `Cc1c(NC(=O)Nc2ccc(C#N)cc2)c(=O)n(-c2ccccc2)n1C` it was inactive: 122%; in that of `COc1ccc(C2c3[nH]c4ccc(OC)cc4c3CCN2C(=O)Nc2ccccc2)cc1` (stereo not drawn), inactive: 94%; in that of `O=C(O)CCNc1ccc(Cl)cn1`, inactive: 100%. Consider `CN1CCC(OC(=O)c2cc3cc(Cl)cc(Cl)c3oc2=O)CC1`, for which the survival is inactive: 102%. In the case of `O=C(N1CCOCC1)N1CCc2ccccc21` it was inactive: 62%. Regarding `Cc1cccc(C(=O)Nc2ccc(OCc3cc(=O)n4c5c(sc4n3)CCCC5)cc2)c1`, the survival was inactive: 71%.

On to `COc1ccccc1Nc1nn2c(=O)c3ccc(C(=O)NC(C)c4ccccc4)cc3nc2s1` (stereo not drawn), for which the survival is inactive: 87%.

For the compound `NC1(C2CCCCC2=O)CCCCC1` (stereo not drawn), the survival is inactive: 93%. For the compound `COC(=O)c1ccccc1NC(=O)c1cc2c(-c3ccc(OC)c(OC)c3)nn(C)c2s1`, the survival was inactive: 97%. `C=CCC(CC=C)(CNC(=O)C(=O)Nc1ccc(C(=O)OCC)cc1)c1ccccc1`: the survival was inactive: 73%. `O=C(/C=C/c1cn(CC(O)CN2CCCCCC2)c2ccccc12)c1ccc(Br)cc1` (stereo not drawn): the survival was active: -3%. With `Cc1ccc(-c2nc3ccccn3c2Nc2ccc3c(c2)OCO3)o1`, the survival was active: 34%. In the case of `Cc1ccc(NC(=O)C(Cc2ccccc2)n2cccc2)cc1C` (stereo not drawn) it was active: 28%; in that of `CCCN(C(=O)c1cc2c(s1)-c1c(C)cccc1OC2)c1ccc(OCC)cc1`, inactive: 98%. The same measure for `CC(C)c1ccc(Nc2nc3c(S(=O)(=O)c4ccc(Br)cc4)nnn3c3ccsc23)cc1`: inactive: 76%; for `COc1ccc(-c2nn(-c3cccc([N+](=O)[O-])c3)c3c2cnc2cc4c(cc23)OCO4)cc1`: inactive: 87%. In the case of `COc1cccc(NS(=O)(=O)c2ccc3c(c2)CCCN3C(=O)C2CCC2)c1`, the survival is inactive: 100%.

Regarding `Cc1cc2nc(-c3cccc(NC(=O)CSc4ccc(Cl)cc4)c3)oc2cc1C`, the survival was inactive: 58%. As to `CCOC(=O)c1cc(-c2ccc(C)cc2)n(CC(=O)NC2CCCCCC2)c1C`, the survival is inactive: 101%.

As to `Cc1ccc(C)c(NC(=O)C(c2ccccc2)N2Cc3ccccc3C2=O)c1` (stereo not drawn), the survival is inactive: 117%. In the case of `COc1ccc(-c2cc(=O)oc3c4c(ccc23)OCN(Cc2cccc(OC)c2)C4)cc1` it was active: 38%. In the case of `COC(=O)c1ccccc1NC(=O)Cn1c(=O)n(CCCC(=O)NCc2ccccc2OC)c(=O)c2ccccc21` it was inactive: 130%. In the case of `COC(=O)c1ccc(NC(=O)COC(=O)CSc2nc(C)cc(C)n2)cc1` it was inactive: 84%. For the compound `COc1cc2cc(CNc3ccccc3)c(=O)n(CC(=O)Nc3cc(C)cc(C)c3)c2cc1OC`, the survival is inactive: 84%.

With `O=C(CCC1N=C2c3ccccc3N=C(SCc3ccc(F)cc3)N2C1=O)NC1CCCCC1` (stereo not drawn), the survival is inactive: 74%.

Turning to `CC(=O)c1ccc(NC(=O)c2nc3nc(C)cc(C(F)F)n3n2)cc1`, the survival was inactive: 76%. In the case of `CCOc1ccc(-n2nc(CO)c(C(=O)NCc3cccc(OC)c3)n2)cc1` it was active: 41%; in that of `Cc1cc(C)cc(-n2ccn(CC(=O)Nc3ccccc3F)c(=O)c2=O)c1`, inactive: 76%.

With `CSc1ncc(C(=O)Nc2cc(Cl)ccc2C)c(-c2ccccc2)n1`, the survival was inactive: 74%. In the case of `CCOC(=O)C1CCCN(c2c3c(nc4cc(-c5ccc(F)cc5)nn24)CCCC3)C1` (stereo not drawn) it was inactive: 76%; in that of `CC(=O)N1CCCc2cc(S(=O)(=O)N3CCN(c4cccc(C(F)(F)F)c4)CC3)ccc21`, inactive: 89%; in that of `COc1ccccc1NC(=O)C1CCN(c2cnccn2)CC1`, active: 54%. The same measure for `COC(=O)Cc1c(C)c2cc3c(c(C)c2oc1=O)OCN(CCc1ccc(OC)cc1)C3`: inactive: 55%; for `CCN(CCN(C)C)C(=O)C1CCN(S(=O)(=O)c2c(C)noc2/C=C/c2ccccc2F)CC1`: inactive: 104%; for `CCn1c(CNc2cccc(Cl)c2)nnc1SCc1ccccc1`: inactive: 82%. Turning to `O=C(OC(C(=O)NC1CCCCC1)c1ccccc1)c1ccco1` (stereo not drawn), the survival was inactive: 98%. With `Cc1cc(C)c(NC(=O)Cn2nnc(-c3nc(-c4ccccc4)no3)c2N)c(C)c1`, the survival was inactive: 83%. Consider `Cc1cc(C)c2c(n1)SCCN2C(=O)Nc1ccc(C(=O)Nc2ccc(C(C)C)cc2)cc1`, for which the survival is inactive: 70%. For the compound `CCN(CC)c1ccc2cc(-c3nc(-c4cc(OC)c(OC)c(OC)c4)no3)c(=O)oc2c1`, the survival was inactive: 87%. In the case of `CC(C)c1ccc(Nc2c(-c3ccco3)nc3ccccn23)cc1` it was inactive: 42%; in that of `COc1cc(NC(=O)c2ccc(-n3cnc4cccnc43)cc2)cc(OC)c1`, inactive: 55%; in that of `COc1ccc(/C=C/C(=O)Nc2ccc3nc(N4CCCCC4)cc(C)c3c2)cc1OC`, active: 43%. In the case of `Cc1ccc(S(=O)(=O)N(CC(=O)Nc2ccc3c(c2)OCO3)c2ccc(C)c(Cl)c2)cc1` it was inactive: 71%. The same measure for `COc1ccc(CN(Cc2nc3ccccc3c(=O)[nH]2)C(=O)Nc2ccccc2)cc1`: inactive: 68%; for `Cc1cn2c(=O)cc(COc3ccccc3NC(=O)c3ccc(Cl)cc3)nc2s1`: inactive: 91%.

`CCOC(=O)c1ccc(NC(=O)CSc2nc3c([nH]c4ccccc43)c(=O)n2C)cc1`: the survival was inactive: 83%.

As for `Cc1ccc(NC(=O)C2CCC(CNS(=O)(=O)c3ccc4c(c3)CCCC(=O)N4)CC2)c(C)c1` (stereo not drawn), the survival is inactive: 86%.

As for `Cc1ccccc1-c1noc(-c2cc(-c3ccc(F)cc3)n[nH]2)n1`, the survival is inactive: 75%. In the case of `O=C(/C=C/c1ccco1)NC(=S)NC1CCCCC1` it was inactive: 115%; in that of `CCCCc1nc2ccccc2n1CC(=O)N(COCC)c1c(C)cccc1CC`, active: -12%; in that of `Cc1ccc2oc(-c3ccc(Cl)c(NC(=O)c4ccc(OC(C)C)cc4)c3)nc2c1`, inactive: 58%. In the case of `O=C(O)CSc1nnc(-c2ccc(O)cc2)o1` it was inactive: 74%.

On to `CCOC(=O)c1noc2nc(C)n(CC(=O)Nc3ccc(OC)c(Cl)c3)c(=O)c12`, for which the survival was inactive: 73%.

For the compound `Cc1cc(N2CCC(C(=O)Nc3ccc(Cl)cc3)CC2)n2nc(C)c(-c3ccc(Cl)cc3)c2n1`, the survival was inactive: 92%. In the case of `Cc1ccc(CC(=O)Nc2c(C(=O)N3CCN(c4ccccc4)CC3)oc3ccccc23)cc1` it was inactive: 69%. In the case of `Cn1c(=O)[nH]c(=O)c2c1nc(NNC=O)n2Cc1ccc(Cl)cc1` it was inactive: 80%; in that of `CCOc1ccc(-c2cc(C(=O)NCCc3ccccc3)c3c(-c4ccc(C)cc4)[nH]nc3n2)cc1`, inactive: 94%.

Turning to `Cc1cc(C)c2c(=O)c3c(oc2c1)C(=O)N(Cc1ccco1)C3c1ccc(F)cc1` (stereo not drawn), the survival was inactive: 53%. As for `Cc1ccc(Oc2nc3ccccn3c(=O)c2/C=C(\C#N)c2nc3ccccc3s2)c(C)c1`, the survival was inactive: 41%. The same measure for `CCN(CC)c1ccc(NS(=O)(=O)c2ccc(-c3coc(C)n3)cc2)c(C)c1`: inactive: 90%; for `Cc1nn(C)c2c1c(C(F)(F)F)cc(=O)n2CC(=O)N1CCN(c2ccccc2F)CC1`: inactive: 90%; for `Cc1ccc(C2C(C#N)=C(N)N(c3cccnc3)C3=C2C(=O)CCC3)s1` (stereo not drawn): inactive: 83%. Consider `CC(=O)N1CCc2c(sc3c2c(=O)n(-c2cccc(Cl)c2)c(=O)n3Cc2ccc(F)cc2Cl)C1`, for which the survival is inactive: 85%. In the case of `O=C(NCc1ccc2c(c1)CCN2C(=O)c1ccc(Cl)cc1)c1ccco1` it was inactive: 80%; in that of `CCOC(=O)c1c(NC(=O)/C=C/c2ccc(OCC)cc2)sc2c1CCCC2`, active: 36%. `O=C(Cn1c(=O)n(-c2ccccc2)c(=O)c2c3c(sc21)CCCC3)Nc1ccccc1`: the survival is inactive: 118%. The same measure for `Cc1cc(-c2ccc(C)c(S(=O)(=O)N3c4ccccc4CC3C)c2)on1` (stereo not drawn): inactive: 92%. The same measure for `CCc1c(C)nc2nncn2c1NCc1ccc(OC)cc1`: inactive: 85%.

`Cc1[nH]c2ccc(CNS(=O)(=O)c3ccc(S(=O)(=O)N4CCOCC4)cc3)cc2c1C`: the survival was inactive: 91%. The same measure for `Cc1cc2c(cc3c(=O)n(CC(=O)NCc4ccccc4Br)ncn32)s1`: inactive: 72%; for `Cc1ccc(Cc2c(C)nc3c(-c4ccccc4)c(C)[nH]n3c2=O)cc1`: active: 0%.

The values are drawn from PubChem BioAssay AID463173 (ICCB-Longwood Screening Facility, Harvard Medical School, 2010).
